Measured values published in the supplement of paper PMC3334620.
In all, about 33,000 sequences were measured (“E-score (-0.5 to 0.5)”: median about -0.032, highest 2% from about 0.36 on). This is one part of the list.

target: T1, Sko1 (UniProt Q02100); assay: PBM E-score (8-mer binding enrichment) (E-score (-0.5 to 0.5)); higher = stronger / more preferred TF binding; most listed sequences are background and not binding sites; conditions: protein concentration: 200 nM; construct: GST-full length
T1 sequence: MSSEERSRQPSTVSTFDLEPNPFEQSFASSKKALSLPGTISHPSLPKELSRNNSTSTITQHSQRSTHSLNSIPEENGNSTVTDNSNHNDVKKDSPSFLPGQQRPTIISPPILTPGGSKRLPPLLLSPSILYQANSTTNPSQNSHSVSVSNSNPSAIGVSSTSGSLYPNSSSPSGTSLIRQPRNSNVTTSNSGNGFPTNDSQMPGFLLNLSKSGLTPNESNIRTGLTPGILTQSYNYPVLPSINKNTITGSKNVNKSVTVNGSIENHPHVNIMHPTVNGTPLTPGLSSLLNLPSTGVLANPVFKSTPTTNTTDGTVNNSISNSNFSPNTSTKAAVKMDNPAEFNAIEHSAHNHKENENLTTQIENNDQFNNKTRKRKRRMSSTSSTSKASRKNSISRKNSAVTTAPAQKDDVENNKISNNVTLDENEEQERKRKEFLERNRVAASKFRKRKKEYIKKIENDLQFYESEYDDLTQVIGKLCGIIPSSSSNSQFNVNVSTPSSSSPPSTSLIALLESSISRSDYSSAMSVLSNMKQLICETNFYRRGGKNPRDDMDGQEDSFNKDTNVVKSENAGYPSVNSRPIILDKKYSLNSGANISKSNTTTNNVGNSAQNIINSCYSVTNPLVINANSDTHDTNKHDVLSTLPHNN
Protocol: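 Universal 'all 10-mer' protein binding microarrays (Agilent AMADID 015681) probed with GST-tagged S. cerevisiae TFs (full-length or DBD) made by in vitro transcription/translation (PURExpress), about 100-200 nM. Bound TF was detected with fluorescent anti-GST. Each ungapped 8-mer (which stands for itself and its reverse complement) is scored by the PBM enrichment score (E-score), a modified Wilcoxon-Mann-Whitney statistic from -0.5 to +0.5, computed with the Universal PBM Analysis Suite. Scale: above 0.35 generally sequence-specific binding.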

Sequence | PBM E-score
GGAAGCGA | 0.0143
AAGGATAA | 0.0386
AGAAACGC | -0.0228
ATGTCCGG | -0.0905
CGTCGTCA | 0.362
TCGAACCA | -0.0881
GGCGGTTA | -0.229
GCTCGTAC | -0.0469
ACCGATTC | -0.197
GCAAGAGA | 0.0227
AGTCAGGC | -0.0572
CATCTGAA | 0.0772
GAATCATC | 0.0732
CGAAACTC | -0.0389
ATAGACTG | -0.0909
AGCAGGAA | -0.0486
CCGGAACG | -0.231
AAGGATCT | -0.148
CTGTGATA | 0.00809
ATCCGAAT | 0.206
ACCTCTAA | -0.0329
AGGCTGGG | -0.245

Sequence | PBM E-score
AATACATG | 0.134
CGATATTC | -0.0106
ACGACCAG | 0.0147
TGTATTAA | 0.182
CTGTGGTC | -0.159
AGCATTAA | 0.107
ACGCGCGC | 0.22
AAACCCCA | -0.181
CTATCAGA | -0.189
AGCTAAGA | 0.0674
GAGTCAAA | -0.0207
GCCGACCC | -0.329
ACTGTTGC | 0.053
CATTCTCG | -0.121
CCATGGGC | -0.35
ATTGATAC | 0.232
CACATAAA | 0.294
CAACACTC | -0.0786
GGTGTGAC | -0.0191
GCCGTGTA | -0.221
CGCCCATA | -0.0644
TAGTCAGA | -0.00137

Sequence | PBM E-score
TTGCCCAA | -0.106
GTCGAGAC | 0.0652
CGTCGTAG | 0.0813
CGAGCGAA | -0.0462
CTGAACTA | -0.132
GGCGAGAA | -0.0627
CCTTGACC | -0.392
AGTCCGTG | -0.249
AACTCATG | 0.195
GAGGGTCC | -0.279
ACGGCACG | 0.104
TACTCACA | 0.00754
CGTATGTA | 0.367
AATTGCAG | 0.0283
ACCCAGCC | -0.342
GCGCCGAA | -0.263
CATGATCC | -0.189
GGCGGTCA | -0.333
TAGTTAAA | 0.253
CCTACCTA | -0.0375
AAAGCCGA | -0.353
CCGTGGGA | -0.28

Sequence | PBM E-score
CAGAGCCC | -0.255
AGATGTTA | -0.00044
TGAATTCA | 0.24
AAAAAGTT | -0.0105
GGACATCA | 0.205
CAGATACG | 0.231
AAACGCCT | -0.154
AGATATGA | 0.232
GATCGTGA | -0.064
CCACGTCA | 0.477
CGCTCAGC | -0.212
CGAGTGAA | 0.138
CGTCTGCA | 0.106
GAAATGTA | 0.0543
ATCTAGAC | 0.0525
CTCGAAGA | -0.0558
GACTTCCA | -0.177
CATCTCAA | 0.192
GTCTGAGA | 0.00502
AAATCTCA | 0.0937
